Assay results published in the supplement of paper PMC10126150.
Values marked as one replicate rest on one cluster of the flow cell; about a third of the high ones do not repeat.

Tested on: ATP
Experiment: switch fluorescence ratio, 500 uM ATP over buffer (Cy3 cluster intensity, sum of 5 cycles each) (fold (ratio)); higher = stronger signal-on switching upon ATP binding; sequences stand for … in TCGTCGGCAGCGTCAGATGTGTATAAGAGACAGTTTTTTTTTTTTTTTTTTTTTTTTT…TC
Conditions: aptamer strand: ATP DNA aptamer (quencher-CACCTGGGGGAGTATTGCGGAGGAAGG + anchor), 100 nM annealed; ATP concentration: 500 uM; one replicate
How it was run: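 Values give the fluorescence ratio for each switch-domain sequence, averaged from per-cluster ratios of summed target-cycle to summed buffer-cycle Cy3 intensity. The Cy3-labelled switching-strand clusters sat on a modified Illumina MiSeq flow-cell, were annealed to 100 nM quencher-labelled ATP aptamer, and were imaged in selection buffer, then after 15 min with 500 uM ATP at 22 °C. Five cycles ran with NaOH stripping and re-annealing between them, and clusters outside 100-1000 RFU were excluded.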
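Also: ATP exposure 15 min at 22 °C before imaging.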

Sequence | switch fluorescence ratio
AATGCCTGAA | 1.01
TTGCGACGG | 0.977
CGTTTTATAA | 1.05
CCAATCGTAG | 1.01
CGAGCGCCTG | 0.994
AAATGAAGAA | 1.02
TACTTGCCGG | 1.51
AAGTCGTACT | 1.03
GGGAACGCAT | 1.18
CCCTTTGGGC | 1.03
TAATGCAACA | 0.978
CTTGACCGTT | 1
TTTGAGGGCA | 1.04
TTGAGTCGAA | 1.01
AATGATGAGT | 0.991
AAAGAGGTCC | 1.12
GGACTAGAGT | 1.01
AGCCGTCCGC | 1.15
TGGTTCTCTT | 0.999
TCCATACATG | 1
TGTGAATCCT | 1.04
CGAAGCATCA | 2.82
GGAAACTTAT | 1.01

Sequence | switch fluorescence ratio
CGGTGTGCA | 1.11
ATCCAGAAAC | 1.04
CGTTTTCCTT | 0.981
TGGAGTGGCC | 1.07
CTCATTGGTT | 1.08
AGCCCGGGGT | 1.53
AGGACTTCAT | 1.02
AAATGGTCTG | 1.04
TGACGTTTAG | 1.04
ATTCGGGGCA | 1.01
TTGCCTTTCA | 1.03
CAGTAAGGAT | 1.02
AGTCCAGTTG | 1.09
ATCTCTCGGT | 0.998
GTTAGAATAT | 0.964
AAGGATACTT | 0.998
TTGCCATCCG | 1.01
GTTTTGTCAC | 1.03
ACTGCGCTAC | 2.74
CCTATAGAGG | 1.01
TCGCGTCGA | 1.06
GGTACCGCAT | 1.82
TCGGACACGG | 1.04

Sequence | switch fluorescence ratio
GGCAGCGATT | 1.05
GAATGATGTG | 0.993
GAATCAGATT | 0.969
ACGACTTAGT | 1.01
AACAGGGGCC | 1.02
ACTAAGGGTA | 1.05
CTCGTGAAGA | 1.09
AGAGAAACAC | 0.997
GACCGTACGT | 1.31
TTAGTCTTGC | 1.01
CGAAGGTCTG | 0.993
GACACGACTT | 1.03
CTTAATGACG | 0.968
CTACAGTTAC | 1.47
GACCAGTGAG | 1.04
GATAATGGT | 1.04
ATGGTCAAGA | 0.967
TCTTAATGTC | 0.985
ACGATACCGG | 1.51
ATCTGCCCTT | 0.99
AAGCGTAGGG | 0.983
ATTCACACTG | 1.07
ATACAGATGT | 0.987

Sequence | switch fluorescence ratio
AAGTTTTGTC | 1.07
TAATCGGTGG | 0.993
AGGTCCTTAA | 0.983
TGTCGGATGG | 0.94
TGTCAGGCAA | 1.09
TCTAGGCAAA | 1.21
CGGGGATGGA | 1.05
CATTGGCTTT | 1
CTGAAAGCTT | 1.01
ACAGGGCCAG | 1.06
TCGCCGTAAA | 1.02
TCTAAAGAGT | 1.01
TGCCGATAGT | 1.03
TGCCCGTTGT | 0.996
CCGGGGGCGC | 1.06
TTACCGATCA | 1.02
TAAGATTAGT | 0.994
TATGGGCTAG | 0.997
GTCTGGTTTA | 0.982
AAGTATACG | 1.03
TTGGAAAATC | 1.02
TTTGGTCGCG | 0.999
GTTTTAGCC | 0.993

Sequence | switch fluorescence ratio
CGTGGTATTC | 1.02
TTAACAGTCG | 0.948
CCGTCTTAGA | 0.998
GGGAGTAGCT | 1.01
ACAGCCGCCC | 1.2
ATTTACAGA | 1.08
TGATCTGCTA | 0.992
GGTCAGATAA | 0.994
GGGGCTCCTA | 0.97
GTTGAATACG | 1.01
GGACCAGTG | 0.94
TGTTGCGAAC | 1.05
TTTGTCCGTT | 1.04
TATAGACAGA | 0.994
GTAGGCCTGT | 1.01
CTCTTATAGG | 0.965
TAAAGTGATC | 0.938
ATGCCTCCCT | 0.999
TTTTGCCAGC | 0.968
GTTACGATC | 1.02
ACGAGGGCG | 0.963
GCCGCACGA | 1.7
TCGTCGGCCA | 1.03

Sequence | switch fluorescence ratio
ATGTTAATTA | 0.982
GGCTTTGGTG | 0.968
AACACAGACC | 1.13
CAGTCTAGTG | 1.02
GGGCGTCACA | 0.977
ATAGCCAGTA | 0.925
ACGCCAAGAA | 1.25
TCGGACTACT | 1.13
ATGTAGCTAA | 1.17
AGTAAATGAA | 1.02
ATACGGTATG | 1.09
GTTAAATAGT | 0.961
TCTGCGTCC | 1.1
TTTCGGTCTC | 1
CCAGATATGA | 0.975
CTTCTAAAAC | 1.07
TCAGACGATG | 0.992
GTCGATGGGA | 1
AATATCTCTA | 1.01
ATGCGCTTGA | 1.07
TGGCGCATTG | 1.02
ACGTCGGAAA | 0.995
GATCGGCAGG | 1.02

Sequence | switch fluorescence ratio
ATACTACAC | 1.3
ACCATTCGCG | 1.01
CGATTTATTA | 0.991
GGATGGAACG | 1.07
TTCCATGGCT | 0.986
ATGGGCCATA | 0.99
TTCGCCTTAT | 0.989
CGTTAGAACT | 0.997
AGCGTGCGTG | 0.988
GGGAAGAGTC | 0.986
CACTTTAGG | 0.972
AGATATTG | 0.988
CCAGCTGAAG | 1.08
TCATATTTTA | 1.02
GCTGGTGACT | 1.01
TGGACACTAC | 1.3
GCTGTTAC | 1.17
AGACAGATCA | 1.01
CTAGAGGT | 1.03
